In the supplement of paper PMC10126150:
Sequences with one replicate were seen in a single cluster, so their values are uncertain.

Tested on: ATP
Test: switch fluorescence ratio, 500 uM ATP over buffer (Cy3 cluster intensity, sum of 5 cycles each) (fold (ratio)); higher = stronger signal-on switching upon ATP binding; sequences stand for … in TCGTCGGCAGCGTCAGATGTGTATAAGAGACAGTTTTTTTTTTTTTTTTTTTTTTTTT…TC
Settings: aptamer strand: ATP DNA aptamer (quencher-CACCTGGGGGAGTATTGCGGAGGAAGG + anchor), 100 nM annealed; ATP concentration: 500 uM; one replicate
Outline: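 Cy3-labelled switching-strand clusters on a modified Illumina MiSeq flow-cell were annealed to 100 nM quencher-labelled ATP aptamer, imaged in selection buffer, then imaged after 15 min with 500 uM ATP at 22 °C. Five buffer/ATP cycles ran, with NaOH stripping and re-annealing between them. The fluorescence ratio is summed target-cycle over summed buffer-cycle Cy3 intensity per cluster, averaged per switch-domain sequence. Clusters outside 100-1000 RFU were excluded.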
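Also: ATP exposure 15 min at 22 °C before imaging.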

Sequence | switch fluorescence ratio
TGGTCGATCG | 0.926
CGGTACGTA | 1.04
CGTACTTCTT | 0.997
GGTGGTACAT | 1
CTCCACTGCT | 1.07
CTATACGTAA | 1.48
CATGGTGCGA | 1.04
ACGGTAGGGA | 1.05
CGGTTTCGCG | 1.02
CGCATGCG | 1.01
ACCTTGGGGG | 0.991
CTCTGGGAGT | 0.989
ACCATTGTAA | 1.01
GCTAATGTAA | 0.987
GGAGGGCGGC | 1.14
TAATTGGCT | 1.03
CGGCAGATTG | 1.01
TTATCAGTAT | 0.982
AGGCTCTTTC | 1
CGAGCTATTA | 1.25
AAGGGTCCCA | 0.991
GGGCGGAGCA | 1.03
TGCCTTACAC | 1.14
GTGAGACCTC | 1.02
GGCTTTATCA | 0.988
GTCTCATCGA | 1

Sequence | switch fluorescence ratio
GATTTAAAAG | 0.994
CGTCATTATT | 1.03
TTCAAAGTCT | 0.975
ACCCTTAGTA | 1.03
TGTTTCAGGT | 1.06
AGAGCAGAAT | 0.982
CGTCAGAGGT | 1.02
CGGGCTCCGG | 1.04
CCCGAAGGCT | 0.989
GGTGCGCAGA | 0.992
AGTCTTCTCT | 1.08
ATTGTTATAC | 1.06
AGGTCTGAC | 0.964
CGGTCTGTA | 1.06
CGCAGCTTGA | 1.2
GACAACTA | 1.04
TGGGCACTGG | 1.06
TTCCGCTTAT | 3.31
TCTGAGCCAC | 1.27
TACATCCAGA | 0.961
GCTTGCTGTT | 1.01
TTGACACGGT | 1.01
ATAAGTTCTA | 1.04
CAGTTTGCTT | 0.977
GACGTTCCTT | 0.989
TACCGGCATT | 1.01

Sequence | switch fluorescence ratio
TAGCCAGAAT | 0.952
GGGCCCCT | 1.42
CCGGGACGGG | 1.05
GCACGGCACA | 1.22
GCACGGCTGT | 1.06
TTACGTTCGG | 0.998
AAGATTTACG | 1.01
TCTGGGATG | 0.981
TTTGGCCTAA | 0.985
TAGAGTATGT | 0.981
TAACAAGTTA | 0.944
ATCTGCCAAT | 1.25
GTCATTGACT | 0.982
CCCTCACATT | 1.03
GTTCTCAAGG | 0.978
GCGTTGGAT | 0.986
TTCACTATGC | 1.03
TGCTTAATAG | 0.982
AACATTTCAG | 0.988
AATCGGCGAT | 1.01
CCCTTCAAAC | 1.28
AACTACTCCT | 1.17
TGTGGAATCC | 0.994
GAGTAAGTTA | 1.03
CGGTGGCTAG | 0.987
TTAACCAGGT | 1.08

Sequence | switch fluorescence ratio
TGTTGAGCTA | 1
CATGGATGGT | 0.985
CCAGGTCTAG | 1.08
GGAATATATT | 0.988
TAGTCCTTT | 0.976
TCTTTCTTGG | 1.37
TTGGAGTGTA | 1.04
GAACACACTT | 1.28
TTGCCAAAGA | 0.981
AGATCTAATA | 0.963
GCAAGACTCG | 3
CGTAGAGATC | 0.964
TACGTCGG | 1.01
CGTCTGGAG | 1.01
AATTGGTGTA | 1.01
TGATATTTCG | 0.94
TTTACTAGGG | 0.988
TGCGAGTCAA | 1.08
TTGACACCGT | 1.05
CGGTTATTCC | 1.08
GGTAGATGAC | 1.05
TTCGGCCATC | 1
TGGTATACCG | 0.979
AGTTAAAACT | 1.03
CGGCCCTCCA | 1.09
GTTGAGAATG | 0.964

Sequence | switch fluorescence ratio
ACTGTGCGT | 0.99
ACAGCAATCT | 2.88
AAGAGTGCAA | 1.03
AATAGGTGTG | 1.03
GGTACGTACG | 1.53
GTCAAATACG | 1.03
CGCCGTTTTT | 0.972
ACCTGGGGCT | 1.06
CGTTCGTATC | 1.14
GCAAGTTCCT | 1.06
CGCTTACGG | 1.18
CTTGACGATG | 0.95
GCGAGGGCGT | 1.02
CCGCAGTCCT | 4.64
CTGCGTTTAA | 1.02
TTCGTCAGGG | 1.02
ATCCTAGGTC | 1.04
TCAGTTTTT | 1.03
GACTGGTGCC | 1.03
GGTTTACGCC | 1.04
GCGCATGTCG | 1.02
TTGAGAGCA | 1.03
CCATTAGAC | 1.02
ATAGCGAGGC | 1.14
CGTGATAATA | 0.969
GAAATCCACG | 1.02

Sequence | switch fluorescence ratio
GAGCCTTGTG | 0.999
GTTTCTATTG | 0.979
TCGATAATGG | 0.969
CATTTTAGA | 1.01
AATGTTGAT | 0.989
ATTGTAATTA | 0.989
TAGGTCGGTT | 0.955
AGCAGACCGC | 1.03
GGCTTGTAGG | 1.04
CGCTCGGTGA | 1.05
TAAACCCCGC | 1.26
GTTCGACCGA | 1.03
GTAATTGCGC | 0.996
TTAGGCAGCA | 1.05
ATTTGTGTAG | 1.02
GGCGGCTACT | 1.01
ATTAGCTTGC | 0.96
AGGGGTAAGC | 1.01
AGGCAGCGAC | 0.965
GGCGTACCGG | 1.02
AAAGGTTATT | 1.01
CTCTGTATCT | 0.972
ACTATGGTTC | 0.961
GTTGCTACGT | 1
CTAAGACAGC | 0.996
ATTGCGTGTC | 1.04

Sequence | switch fluorescence ratio
GAAAACTACG | 1.58
CTCTGGCAGC | 2.41
TACAATTGTG | 0.975
TGCGGTTTCG | 0.97
ATCCTTCATC | 1.67
GCGCGATCCG | 1.01
AGTTAACGGC | 1.03
GTCGAGTTAT | 0.938
CCGCGCGTCG | 1.07
TGGAGTTTGT | 0.976
AAAAGTCGTA | 0.982
ACCAGGCCGA | 1.02
AGGGTTCGCA | 1.01
GTGGTCTAGA | 1.01
AGTGACCGGT | 1.03
AGCGTAACGG | 0.995
GCCTTCTGTA | 1.07
ACTAAGCAAA | 1.41
ACTTTTGTTC | 1.05
CTACGGGCA | 1.07
TGCACGGTTT | 0.992
AGGTGAGGAC | 1.01
GGTGTATGAC | 0.982
CACCTCCGTA | 1.96
AAAAAGAATC | 1.08
ACACACCCGC | 1.33

Sequence | switch fluorescence ratio
CAGTTGG | 0.999
TGTTGATCGG | 1.01
CGGTTGCCTA | 0.918
GGAAGGCCAG | 0.96
TGAGACTGAT | 0.988
TTAGTGAGAG | 0.99
AGGGAGACCG | 1.03
GAGGTGAAGT | 0.969
CGTGGTAGGC | 0.999
TAAACCGTCG | 1.26
AGCTATCGTT | 1.01
AAGTCAGAT | 0.98
CTCCTGGGGG | 1.15
AGCAACGTGC | 1.01
GGGACTTTCA | 1.01
TCGCTAACCC | 1.3
ACTGCATGCT | 1.07
ACACACGCTC | 1.35
ATAGCCGCAA | 5.46
